pIC50: −log10 of the molar value. The IC50 comes from the fitted curve, where viability falls to half of the control; a limit (>, <) means that the fit lies beyond the doses tested. AUC sums up the same curve from the lowest dose to the 256-fold higher top dose; values near 1 show little effect. The top dose, if marked as inferred, comes from the curve model; the source does not state it. Drugs with an entry number were screened twice under separate entries, and the two screens often disagree.

Compound in the first experiment: NC(=O)[C@@H](CCC(F)(F)F)N(Cc1ccc(-c2ncon2)cc1F)S(=O)(=O)c1ccc(Cl)cc1 [BMS-708163]
The experiment in a line: Viability of human cancer cell lines after 72 h of drug (GDSC screen). To be noted: screen: GDSC drug entry 205; top dose inferred. How it is done:
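Human cancer cell lines in 384-well plates, medium with 10% serum, drug for 72 h over a 256-fold dose range (nine 2-fold or five 4-fold steps up to the top dose). Adherent lines were fixed and stained with the nucleic acid dye Syto60, suspension lines read with resazurin; signal relative to control wells, capped at 0 and 100%. One two-parameter sigmoid per drug and line, fitted in a mixed model over all curves with the slope shared within a line.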
In the case of “Ramos-2G6-4C10 (Burkitt lymphoma, suspension, top dose 10.24 µM)”, the AUC was found to be 0.988 and the pIC50 – broadly, −log10 of the IC50, conventionally taken in molar units – is below 4.99.
The corresponding values for “SAS (head and neck, adherent, top dose 10.24 µM)” are 0.982 and below 4.99.
The corresponding values for “SAT (head and neck, adherent, top dose 10.24 µM)” are 0.952 and below 4.99.
The corresponding values for “SBC-1 (small cell lung carcinoma, suspension, top dose 10.24 µM)” are 0.989 and below 4.99.
As for “SBC-3 (small cell lung carcinoma, adherent, top dose 10.24 µM)”, the AUC was 0.988 and the negative logarithm of the IC50 (pIC50) was below 4.99.
The corresponding values for “SBC-5 (small cell lung carcinoma, adherent, top dose 10.24 µM)” are 0.992 and below 4.99.
The corresponding values for “SCC-3 (B-cell lymphoma, suspension, top dose 10.24 µM)” are 0.996 and below 4.99.
The corresponding values for “SCC-4 (head and neck, adherent, top dose 10.24 µM)” are 0.982 and below 4.99.
For “SCC-9 (head and neck, adherent, top dose 10.24 µM)”, the AUC turned out to be 0.981 and the pIC50 is below 4.99.
The corresponding values for “SCC-15 (head and neck, adherent, top dose 10.24 µM)” are 0.974 and below 4.99.
The corresponding values for “SCC-25 (head and neck, adherent, top dose 10.24 µM)” are 0.983 and below 4.99.
The corresponding values for “SCH (stomach, adherent, top dose 10.24 µM)” are 0.987 and below 4.99.
Turning to “SF126 (glioma, adherent, top dose 10.24 µM)”, the AUC worked out at 0.986 and the pIC50 was below 4.99.
Consider “SF268 (glioma, adherent, top dose 10.24 µM)”, for which the AUC was 0.985 and the pIC50 is below 4.99.
The corresponding values for “SF295 (glioma, adherent, top dose 10.24 µM)” are 0.985 and below 4.99.
The corresponding values for “SF539 (glioma, adherent, top dose 10.24 µM)” are 0.99 and below 4.99.
The corresponding values for “SH-4 (melanoma, adherent, top dose 10.24 µM)” are 0.962 and below 4.99.
Turning to “SHP-77 (small cell lung carcinoma, semi-adherent, top dose 10.24 µM)”, the AUC came out at 0.987 and the pIC50 was below 4.99.
The corresponding values for “SIG-M5 (acute myeloid leukaemia, suspension, top dose 10.24 µM)” are 0.986 and below 4.99.
As to “SIMA (neuroblastoma, adherent, top dose 10.24 µM)”, the AUC was 0.984 and the pIC50 was below 4.99.
The corresponding values for “SISO (cervix, adherent, top dose 10.24 µM)” are 0.988 and below 4.99.
The corresponding values for “SJRH30 (rhabdomyosarcoma, adherent, top dose 10.24 µM)” are 0.986 and below 4.99.
The corresponding values for “SJSA-1 (bone, adherent, top dose 10.24 µM)” are 0.984 and below 4.99.
For the cell line “SK-CO-1 (large intestine, adherent, top dose 10.24 µM)”, the AUC is 0.985 and the pIC50 is below 4.99.
The corresponding values for “SK-ES-1 (Ewing sarcoma, semi-adherent, top dose 10.24 µM)” are 0.985 and below 4.99.
The corresponding values for “SK-GT-4 (oesophagus, adherent, top dose 10.24 µM)” are 0.982 and below 4.99.
Consider “SK-HEP-1 (liver, adherent, top dose 10.24 µM)”, for which the AUC was 0.989 and the negative-log IC50 (pIC50) is below 4.99.
The corresponding values for “SK-LMS-1 (soft tissue, adherent, top dose 10.24 µM)” are 0.987 and below 4.99.
The corresponding values for “SK-LU-1 (lung adenocarcinoma, adherent, top dose 10.24 µM)” are 0.981 and below 4.99.
Take “SK-MEL-1 (melanoma, suspension, top dose 10.24 µM)”: the AUC amounted to 0.993 and the pIC50 is below 4.99.
The corresponding values for “SK-MEL-2 (melanoma, adherent, top dose 10.24 µM)” are 0.987 and below 4.99.
The corresponding values for “SK-MEL-3 (melanoma, adherent, top dose 10.24 µM)” are 0.983 and below 4.99.
The corresponding values for “SK-MEL-5 (melanoma, adherent, top dose 10.24 µM)” are 0.981 and below 4.99.
For “SK-MEL-24 (melanoma, adherent, top dose 10.24 µM)”, the AUC came out at 0.983 and the negative logarithm of the IC50 (pIC50) was below 4.99.
For “SK-MEL-28 (melanoma, adherent, top dose 10.24 µM)”, the AUC worked out at 0.989 and the pIC50 is below 4.99.
The corresponding values for “SK-MEL-30 (melanoma, adherent, top dose 10.24 µM)” are 0.981 and below 4.99.
The corresponding values for “SK-MES-1 (lung squamous cell carcinoma, adherent, top dose 10.24 µM)” are 0.982 and below 4.99.
The corresponding values for “SK-MG-1 (glioma, adherent, top dose 10.24 µM)” are 0.986 and below 4.99.
“SK-MM-2 (myeloma, suspension, top dose 10.24 µM)”: the AUC amounted to 0.976 and the pIC50 was below 4.99.
The corresponding values for “SK-N-AS (neuroblastoma, adherent, top dose 10.24 µM)” are 0.977 and below 4.99.
The corresponding values for “SK-N-DZ (neuroblastoma, adherent, top dose 10.24 µM)” are 0.988 and below 4.99.
The corresponding values for “SK-N-FI (neuroblastoma, adherent, top dose 10.24 µM)” are 0.981 and below 4.99.
For the cell line “SK-N-SH (neuroblastoma, adherent, top dose 10.24 µM)”, the AUC came to 0.986 and the pIC50 was below 4.99.
In the case of “SK-OV-3 (ovary, adherent, top dose 10.24 µM)”, the AUC is 0.981 and the pIC50 is below 4.99.

The same experiment, now with this note: top dose 5 µM; screen: GDSC drug entry 1072; top dose inferred.
Consider SK-GT-2 (stomach, adherent), for which the AUC came out at 0.986 and the pIC50 is below 5.30.
The corresponding values for SK-GT-4 (oesophagus, adherent) are 0.675 and 5.96.
Take SK-MEL-5 (melanoma, adherent): the AUC turned out to be 0.978 and the pIC50 was below 5.30.
The corresponding values for SK-MEL-31 (melanoma, adherent) are 0.975 and below 5.30.
The corresponding values for SK-MG-1 (glioma, adherent) are 0.987 and below 5.30.

The values are drawn from the supplement of paper PMC4967469.
